Assay results published in PubChem BioAssay AID1347417 (National Center for Advancing Translational Sciences (NCATS), 2020).
Screen size: about 120,000 compounds; about 5,300 (4.4%) were called active. The shares of active, inactive and inconclusive entries below differ from those in the screen. Calls follow the shape of the dose curve; as a rule, active = well fitted inhibition curve with a large enough effect; inconclusive = small, poorly fitted or top-dose-only effect; inactive = no such curve, though single readings can be large or run the other way. A potency beside an inconclusive call is a rough fit, not a confirmed value.

Test: qHTS Primary assay for Inhibitors of Plasmodium falciparum Dd2 growth in vitro; also: nearly all actives have a fitted effect of over 65% in size
Settings: P. falciparum Dd2 growth, SYBR Green, 72 h; series mostly up to 28.9 µM
Outline: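 Readout: SYBR Green fluorescence, 485 nm excitation, 535 nm emission, after ~16 h lysis at 37C. Before that, Dd2-infected red cells (2.5% hematocrit) grew 72 h with compound, 29 uM top final concentration.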
Potency is read from the fitted curve at half-maximal effect; tags tell the direction and shape of the fitted curve.

Structure (SMILES) | Potency
CCOC(=O)c1c(NC(=O)CSc2nc(-c3ccc(OC)cc3)cc(C(F)(F)F)n2)sc(C)c1C | inconclusive: 11.2 µM [inhibitor, single point]
COc1ccc(C(=O)N2CC[C@H]3COC(=O)N3c3ccccc3C2)cc1 | inactive
CC(C)c1nc2c(c(-c3ccc(Cl)cc3)n1)CCN([S+](=O)([O-])c1cccc(C(F)(F)F)c1)CC2 | inconclusive: 10 µM [inhibitor, single point]
Cc1cccc(CN2CCC3(CC2)Cc2ccccc2CNC3=O)c1 | inconclusive: 11.2 µM [inhibitor, partial curve, poor fit]
COc1ccc(CNC(=O)Cn2c(N3CCCCC3)nc(C)c(C)c2=O)cc1 | inconclusive: 7.94 µM [inhibitor, single point]
NCC(C1CCCCC1)N1CCOCC1 (stereo unspecified) | inconclusive: 22.4 µM [inhibitor, single point]
O=C1CC(c2ccccc2)N(C(=O)CNC(=O)c2ccco2)CCCCCN1 (stereo unspecified) | inactive
CN1CCN(c2ccc(-c3cc4c(ccn4C)c(C(=O)NCCC(N)=O)n3)cc2)CC1 | inactive
CC(C)CN1Cc2ccccc2-n2ccnc2C12CCN(C(=O)c1cccs1)CC2 | inconclusive: 1.26 µM [inhibitor, partial curve, poor fit]
COCc1nnc2n1CCC(NC(=O)c1cscn1)CC2 (stereo unspecified) | inactive
COc1ccc(NC(=O)c2c(NCc3ccc(OC)c(OC)c3OC)sc3c2CCC3)c(OC)c1 | active: 10 µM
CNC(=O)[C@@H]1C[C@H](Oc2cccnc2)CN1C(=O)CC(C)C | inactive
CCN1c2cc(C(=O)Nc3cccc(SC)c3)ccc2C(=O)N2CCCCC21 (stereo unspecified) | inconclusive: 2.82 µM [inhibitor, partial curve, poor fit]
CC(=O)Nc1cccc(-c2cc(C(=O)NCc3c(C)cc(C)[nH]c3=O)c3c(c2)N(C(C)C)CCO3)c1 | active: 1.78 µM
O=C(CCc1ccccc1)NCCn1cccc1-c1nc(-c2ccc3c(c2)OCO3)no1 | active: 7.08 µM
CCCCCOc1ccccc1CN1C(=O)C(=O)c2cc(C)ccc21 | inconclusive: 20 µM [inhibitor, partial curve, poor fit]
COc1ccc(-n2ncc(C(=O)N3CCN(C(=O)c4ccco4)CC3)c2C2CCN(C(=O)OC(C)(C)C)CC2)cc1 | inactive
COc1ccc(-c2ccc(CNCCCSc3nnnn3C)o2)cc1Cl | inconclusive: 11.2 µM [inhibitor, single point]
CCOc1ccccc1NC(=O)Nc1cccc(-c2ccc(N3CCCC3)nn2)c1 | inconclusive: 8.91 µM [inhibitor, single point]
CCOC(=O)CCNC(=O)N1CCC(N2C(=O)C3(CCCC3)C2c2scnc2C)CC1 (stereo unspecified) | inactive
CCc1ccc(NC(=O)C2CCN(C(=O)c3nnn4cc(C)[nH]c(=O)c34)CC2)cc1 | inconclusive: 0.398 µM [inhibitor, full curve, poor fit]
CCOC(=O)C1(Cc2ccc(Cl)cc2)CCN(C(=O)c2ccc(C)s2)CC1 | inactive

Structure (SMILES) | Potency
CCN1CCCN(C(=O)CCC2CCCC2)CC12CCOCC2 | inactive
COCCN1CCC(CN(C)C2CCNCC2)C1 (stereo unspecified) | inactive
O=C(Nc1ccc2c(N3CCOCC3)ncnc2c1)c1ccc(F)c(Cl)c1 | active: 2.51 µM
O=C(C1CCCC1)N1CCC2(CC1)CC(N(Cc1ccc(F)cc1)C1CC1)CCO2 (stereo unspecified) | inconclusive: 12.6 µM [inhibitor, partial curve, poor fit]
CCc1nc2ccc(C(=O)N3CCN(c4cc(C)ccc4C)CC3)cc2nc1CC | inconclusive: 17.8 µM [inhibitor, single point]
CCC(=O)N1CCN(C2CCN(CCC(C)C)C2=O)CC1 (stereo unspecified) | inactive
Fc1ccc(CSc2nncn3c2cc2occc23)c(Cl)c1 | inconclusive: 17.8 µM [inhibitor, single point]
NC(=O)c1cccc2[nH]c([C@H]3CCN(Cc4ccccn4)C3)nc12 | inconclusive: 0.355 µM [inhibitor, full curve, poor fit]
O=C(CCC1CCN(S(=O)(=O)c2ccccc2)CC1)N1CCOCC1 | inactive
COc1ccccc1N1CCN(CCCNC(=O)c2nnc(Cc3ccc(F)cc3Cl)o2)CC1 | inconclusive: 6.31 µM [inhibitor, partial curve, poor fit]
CC(C)c1ccc(-n2cc(CN3CCCC4(C3)CN(C)C(=O)O4)cn2)cc1 (stereo unspecified) | inconclusive: 7.94 µM [inhibitor, partial curve, poor fit]
COCCN1Cc2nc(-c3cc(F)cc(F)c3)ccc2OCC1=O | inconclusive: 31.6 µM [inhibitor, single point]
CC1=C[C@@H](CNC(=O)C2CCCCC2)[C@H](C(C)C)C[C@H]1Cc1nc2ccc(C)cc2[nH]1 | active: 11.2 µM
CC(C)c1noc(-c2cn(C3CCCN(C(=O)c4ccccc4)C3)nn2)n1 (stereo unspecified) | inconclusive: 5.01 µM [inhibitor, partial curve, poor fit]
COC(=O)c1ccc(Nc2nc(-c3ccccc3Cl)nc3ccccc23)cc1 | inconclusive: 8.91 µM [inhibitor, single point]
Clc1cccc(-c2nc3ccccn3c2Nc2ccc3c(c2)OCCO3)c1 | inconclusive: 20 µM [inhibitor, single point]
COc1ccc(N2C(=O)CSC23C(=O)N(CC(=O)Nc2ccccc2F)c2ccccc23)cc1 (stereo unspecified) | inconclusive: 17.8 µM [inhibitor, partial curve, poor fit]
COc1ccc(C2(C(=O)NCC(=O)N3CCCCCCNC(=O)CC3c3ccccc3)CC2)cc1 (stereo unspecified) | inconclusive: 5.01 µM [inhibitor, partial curve]
Cc1cccc(C(=O)Nc2cc3nn(-c4ccc(C(C)C)cc4)nc3cc2C)c1 | inactive
C[S+](=O)([O-])c1ccc(-c2cc3c(ccn3Cc3ccncc3)c(N3CCOCC3)n2)cc1 | inconclusive: 8.91 µM [inhibitor, single point]
CN(C)CC(C)(C)NC(=O)c1csc2nc(-c3cccc(C(F)(F)F)c3)cn12 | inconclusive: 17.8 µM [inhibitor, single point]
CCCn1c(C)cnc1C1CCN(S(=O)(=O)c2ccc3c(c2)CCC3)C1 (stereo unspecified) | inconclusive: 1.41 µM [inhibitor, partial curve, poor fit]

Structure (SMILES) | Potency
CC(=O)Nc1ccc(Nc2nc3c(S(=O)(=O)c4cc(C)ccc4C)nnn3c3ccsc23)cc1 | inactive
O=C(Nc1nccs1)c1ccc2c(c1)OCCN(c1cccc(OC(F)(F)F)c1)C2 | inactive
CC(C)c1nc2c(c(-c3ccc(Cl)cc3)n1)CCN(C(=O)c1ccc(C(F)(F)F)cc1)CC2 | active: 10 µM
CCCc1cc(CN(C)C(=O)CC2C(=O)NCCN2CCCc2ccccc2)[nH]n1 (stereo unspecified) | inactive
Cc1ccc2c(C(=O)N3CCN(CC(C)C)CC3)cc(NC(=O)C3CCC3)cc2n1 | inconclusive: 11.2 µM [inhibitor, single point]
O=C(C1CCC(Cn2c(=O)c3sccc3n(Cc3cccc(F)c3)c2=O)CC1)N1CCOCC1 (stereo unspecified) | inconclusive: 8.91 µM [inhibitor, partial curve]
C1CNCC(c2nc(C3CCOCC3)no2)C1 (stereo unspecified) | inactive
CCn1ccc2cc(S(=O)(=O)N3CCCN(C(=O)Nc4cccc(SC)c4)CC3)ccc21 | inconclusive: 11.2 µM [inhibitor, single point]
CNc1cc(C2CC(Nc3nc(N)nc(C)c3Cl)C2)nc(COC)n1 (stereo unspecified) | inconclusive: 20 µM [inhibitor, single point]
COc1ccc(CCc2nc3nccc(-c4ccc(OC)cc4)n3n2)cc1 | inactive
COc1ccc(C2Cn3cnc(-c4nc(-c5ccc(OC(C)C)cc5)no4)c3CO2)cc1 (stereo unspecified) | active: 11.2 µM
COc1ccccc1NC(=O)CSc1ccc(-c2ccccn2)nn1 | inconclusive: 10 µM [inhibitor, single point]
Cc1ccc(N(C)C(CNS(=O)(=O)c2ccccc2)c2ccccc2)cc1 (stereo unspecified) | inconclusive: 17.8 µM [inhibitor, single point]
CCN1c2cc(C(=O)Nc3cc(OC)cc(OC)c3)ccc2C(=O)N2CCCCCC21 (stereo unspecified) | inconclusive: 1.26 µM [inhibitor, partial curve, poor fit]
C#CCNC(=O)C[C@@H]1c2nc(NC(=O)OCC=C)sc2C[C@@H]2[C@](C)(CO)[C@H](O)CC[C@]21C | inconclusive: 1.26 µM [inhibitor, full curve]
O=C1CC2(CCN(Cc3ccccc3)CC2)Oc2ccccc21 | inconclusive: 2 µM [inhibitor, full curve, poor fit]
CSc1ccc(CNC(=O)c2cc3c(N4CCCC4)nc(C)cn3n2)cc1 | inconclusive: 7.94 µM [inhibitor, partial curve, poor fit]
COCCN1Cc2ccc(Nc3cccnc3)nc2C(C)(C(=O)Nc2cccc(F)c2)C1 (stereo unspecified) | active: 8.91 µM
CCN(CC)C(=O)C(NC(=O)c1cccc(OC)c1)C1CCN(C(=O)c2ccc3c(c2)OCO3)CC1 (stereo unspecified) | inconclusive: 1.58 µM [inhibitor, partial curve, poor fit]
N[C@H]1CN(C(=O)c2ccc(N3CCCCC3)cc2)C[C@@H]1c1ccccc1 | inconclusive: 10 µM [inhibitor, single point]
COc1ccc(Nc2cc(C(=O)NCCCN(C)C3CCCCC3)c3ccccc3n2)c(OC)c1 | active: 8.91 µM
CCCn1c2ccccc2c2cnn(CC(=O)NCCCN(Cc3ccccc3)C(C)C)c(=O)c21 | inconclusive: 17.8 µM [inhibitor, single point]
